In PubChem BioAssay AID1347120 (National Center for Advancing Translational Sciences (NCATS), 2019):
In all, about 390,000 compounds went through this assay and about 930 (0.24%) were called active. Inconclusive means that the source gave no clear call. Such entries were picked first, then a sample of the others. The call rests on the fitted dose curve; in most records, active means well fitted activation curve with a large enough effect; inconclusive means small, poorly fitted or top-dose-only effect; inactive means no such curve, though single readings can be large or run the other way. Where the call is inconclusive, the potency comes from a doubtful curve fit.

Assay: qHTS for Suppressors of FUS Proteinopathy: Primary screen using FUS-linked yeast assay; further: nearly all actives have a fitted effect of over 55% in size;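 on growth rescue (activation): plate controls were DMSO vehicle for no effect and reference control for full effect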
Settings: S. cerevisiae FUS-expressing, OD600, 24 h; Potency: growth rescue; growth rescue (activation): at 76.6 µM (top of the series)
Outline: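 Read-out: OD at 600 nm after 24hr at 30C, reporting rescue of FUS-induced yeast toxicity. Cells at OD 0.005 in galactose (2%) minimal medium; compounds tested in a dilution series; CP55940 titration from 92uM final as control.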
Potency means the concentration at half of the fitted maximal effect; tags describe the fitted curve by direction and shape.

**Q.** For `O=C(CC(NC(=O)C(F)(F)F)c1ccccc1)Nc1nnc(CCc2ccccc2)s1` (stereo not drawn), which Potency is on record?
**A.** Its Potency is inconclusive: 11.2 µM [activator, single point].

**Q.** With `C=CC[C@@H](CC(=O)N(CCO)Cc1ccccc1)C(=O)N[C@H](COC(=O)[C@@H](CC=C)Cc1ccc(F)cc1)C(C)(C)C` as the molecule, how does the Potency read?
**A.** Its Potency is inconclusive: 22.4 µM [activator, partial curve, poor fit].

**Q.** Which “growth rescue (activation)” value does the source give for `CNc1ccccc1/C(O)=C(\C#N)C(=O)NCc1cccc2ccccc12` here?
**A.** The value was inactive: -5.48%.

**Q.** Which Potency does the source give for `CC(C)(C)c1ccc(C(=O)CSc2ncn[nH]2)cc1` here?
**A.** Its Potency is inconclusive: 5.01 µM [activator, full curve, poor fit].

**Q.** For `COC(=O)c1ccc(N2C(=O)Cc3cc(OC)c(OC)cc3C2c2ccc(F)cc2)cc1` (stereo not drawn), which Potency is on record?
**A.** Its Potency is inconclusive: 28.2 µM [activator, single point].

**Q.** For `C[C@@H]1CN([C@H](C)CO)C(=O)c2cc(NC(=O)Nc3cccc4ccccc34)ccc2O[C@H]1CN(C)Cc1ccc(C(F)(F)F)cc1`, which Potency is on record?
**A.** The Potency was inconclusive: 28.2 µM [activator, single point].

**Q.** Which Potency does the source give for `Clc1ccc(-n2c(COc3ccccc3)nnc2SCc2nc3ccccc3[nH]2)cc1` here?
**A.** The Potency was inconclusive: 25.1 µM [activator, single point].

**Q.** With `Cc1cccc(Nc2ncnc3onc(-c4cccc(Cl)c4)c23)c1C` as the molecule, how does the Potency read?
**A.** Its Potency is inconclusive: 44.7 µM [activator, single point].

**Q.** For `Cc1nn(C)c(C)c1S(=O)(=O)N(CC(=O)NCCCOC(C)C)c1ccc(C(C)C)cc1`, which Potency is on record?
**A.** The Potency was inconclusive: 14.1 µM [activator, partial curve, poor fit].

**Q.** Which Potency does the source give for `CC(C)C[C@H]1CNC(=S)N1C[C@H]1CCCN1C[C@H](Cc1ccc(O)cc1)N1C[C@H](Cc2ccccc2)N(CCc2ccccc2)C1=S` here?
**A.** Its Potency is inconclusive: 28.2 µM [activator, single point].

**Q.** For `CCOCCc1nnc(NC(=O)C(=O)c2cc(C)n(-c3ccc(C)cc3C)c2C)s1`, which Potency is on record?
**A.** Its Potency is inconclusive: 14.1 µM [activator, partial curve, poor fit].

**Q.** For `COC(=O)[C@]12C[C@H](CC(=O)NCCc3ccccc3OC)C(=O)N(Cc3cccc4ccccc34)C1=C[C@H](C(C)(C)C)O[C@@H]2C`, which Potency is on record?
**A.** Its Potency is active: 14.1 µM.

**Q.** With `CCOc1ccc(Nc2nc(-c3cccc(Cl)c3)c3c(n2)-c2ccccc2OC3)cc1` as the molecule, how does the “growth rescue (activation)” value read?
**A.** Its value is inactive: 19.5%.

**Q.** Which Potency does the source give for `CCn1c(C)c(C)c2cc(C(=O)NCC(C)c3ccccc3)ccc21` (stereo not drawn) here?
**A.** The Potency was inconclusive: 35.5 µM [activator, single point].

**Q.** With `CCCC(=O)Nc1cccc(OCc2cc(=O)n3cccc(C)c3n2)c1` as the molecule, how does the “growth rescue (activation)” value read?
**A.** The value was inactive: -2.15%.

**Q.** Which Potency does the source give for `C[C@H]1CN([C@@H](C)CO)S(=O)(=O)c2ccc(/C=C/c3ccccc3)cc2O[C@H]1CN(C)C(=O)NC1CCCCC1` here?
**A.** Its Potency is active: 11.2 µM.

**Q.** With `Cc1cc(NC(=O)c2ccccc2O)nc(C)n1` as the molecule, how does the “growth rescue (activation)” value read?
**A.** Its value is inactive: 11%.

**Q.** Which Potency does the source give for `CC(/C=N/NC(=O)c1cc(-c2ccc(Cl)cc2)nc2ccccc12)=C\c1ccco1` here?
**A.** Its Potency is inconclusive: 8.91 µM [activator, partial curve, poor fit].

**Q.** Which Potency does the source give for `CCCNC(=O)c1cc2c(c(-c3cccc(-c4ccccc4F)c3)n1)[C@@H](CCO)N(C(=O)CC1CC1)C2` here?
**A.** Its Potency is inconclusive: 20 µM [activator, partial curve, poor fit].

**Q.** For `Cc1ccc(CN2CCCCC(NC(=O)Nc3ccccc3-c3ccccc3)C2=O)cc1` (stereo not drawn), which Potency is on record?
**A.** Its Potency is inconclusive: 25.1 µM [activator, partial curve, poor fit].

**Q.** For `CCc1nn(C(CC)C(=O)NCc2ccc(OC)c(OC)c2)c(=O)c2cc3oc(C)cc3n12` (stereo not drawn), which Potency is on record?
**A.** Its Potency is inconclusive: 7.94 µM [activator, partial curve].

**Q.** For `Cn1c2ccccc2c2cc(/C=N/NC(=O)c3ccc(O)cc3O)ccc21`, which Potency is on record?
**A.** Its Potency is inconclusive: 31.6 µM [activator, single point].

**Q.** For `CCCCNC(=O)c1cccc(NC(=O)c2nsc3ccccc23)c1`, which “growth rescue (activation)” value is on record?
**A.** Its value is inactive: -8.07%.

**Q.** Which Potency does the source give for `Cc1c(C(=O)NCc2ccc3c(c2)cc(C)n3C)cccc1[N+](=O)[O-]` here?
**A.** Its Potency is inconclusive: 50.1 µM [activator, single point].

**Q.** For `COc1ccc(Cl)cc1NC(=O)N1CCN(S(=O)(=O)c2ccc3c(ccn3C)c2)CC1`, which Potency is on record?
**A.** Its Potency is inconclusive: 31.6 µM [activator, partial curve, poor fit].

**Q.** Which “growth rescue (activation)” value does the source give for `CC(C)(C)OC(=O)N1CCC(c2c(C(=O)NCc3cccs3)cnn2-c2cccc(F)c2)CC1` here?
**A.** The value was inactive: 8.07%.

**Q.** With `CCN(CC)C1=N/C(=C\c2ccco2)C(=O)N1c1ccccc1` as the molecule, how does the Potency read?
**A.** Its Potency is inconclusive: 31.6 µM [activator, partial curve, poor fit].

**Q.** With `Cc1ccc(C2c3[nH]c4ccccc4c3C[C@H]3C(=O)N(c4ccccc4C(=O)NCCN4CCOCC4)C(=O)N23)cc1` (stereo partly drawn) as the molecule, how does the Potency read?
**A.** Its Potency is inconclusive: 25.1 µM [activator, single point].

**Q.** For `COc1ccc(CC(=O)N2CCc3cc(OC)c(OC)cc3C2COc2ccc(F)cc2)cc1` (stereo not drawn), which Potency is on record?
**A.** The Potency was inconclusive: 11.2 µM [activator, partial curve, poor fit].

**Q.** Which “growth rescue (activation)” value does the source give for `COc1ccc(OC)c(NC(=O)c2oc(=O)c3ccccc3c2-c2ccccc2)c1` here?
**A.** Its value is inactive: -9.76%.

**Q.** Which Potency does the source give for `Cc1occc1C(=O)NCc1cccc(CNC(=O)c2ccoc2C)c1` here?
**A.** The Potency was inconclusive: 50.1 µM [activator, single point].

**Q.** For `Cc1ccc(S(=O)(=O)N2CCSC2)cc1C`, which Potency is on record?
**A.** The Potency was active: 0.891 µM.

**Q.** With `CC(C)CC(COCc1ccc(F)cc1)N1CCN(C(=O)c2cccc(C(F)(F)F)c2)CCC1=O` (stereo not drawn) as the molecule, how does the Potency read?
**A.** Its Potency is inconclusive: 35.5 µM [activator, single point].

**Q.** Which “growth rescue (activation)” value does the source give for `COCCCn1c(=O)/c(=C/c2ccccc2OC(F)F)s/c1=C(\C#N)C(=O)NCCOC` here?
**A.** The value was inactive: 19.2%.

**Q.** Which Potency does the source give for `CC(C)c1ccccc1OCC(=O)Nc1cc(S(=O)(=O)N2CCOCC2)ccc1N1CCCC1` here?
**A.** Its Potency is inconclusive: 50.1 µM [activator, single point].

**Q.** With `O=C(NC(CSCc1ccccc1)C(=O)N/N=C/c1ccc(O)cc1O)c1ccc([N+](=O)[O-])cc1` (stereo not drawn) as the molecule, how does the Potency read?
**A.** Its Potency is inconclusive: 25.1 µM [activator, partial curve].

**Q.** For `O=C(Nc1ccc(Oc2ccccc2)cc1)C1CCN(c2c3c(nc4ncnn24)CCC3)CC1`, which Potency is on record?
**A.** The Potency was inconclusive: 44.7 µM [activator, partial curve, poor fit].

**Q.** With `O=C(Cc1c(Cl)cccc1Cl)N/N=C/c1cccnc1` as the molecule, how does the Potency read?
**A.** The Potency was inconclusive: 11.2 µM [activator, single point].

**Q.** With `C[C@H](CO)N1C[C@H](C)[C@H](CN(C)S(=O)(=O)c2ccc3c(c2)OCCCO3)OCc2cnnn2CCCC1=O` as the molecule, how does the Potency read?
**A.** The Potency was inconclusive: 31.6 µM [activator, partial curve, poor fit].

**Q.** With `CCN(C(=O)c1ccc2c(Cl)c3c(nc2c1)CCC3)c1ccc(C)c(C)c1` as the molecule, how does the Potency read?
**A.** The Potency was inconclusive: 28.2 µM [activator, single point].

**Q.** Which Potency does the source give for `C[C@H](NC(=O)c1nc[nH]c1C(=O)N[C@@H](Cc1ccccc1)C(=O)OC(C)(C)C)c1ccccc1` here?
**A.** The Potency was inconclusive: 15.8 µM [activator, partial curve].

**Q.** For `CC(C)C(N)c1csc(NC(=O)Nc2ccccc2C(C)(C)C)n1` (stereo not drawn), which Potency is on record?
**A.** Its Potency is inconclusive: 50.1 µM [activator, single point].

**Q.** For `Cc1ccc(C2C3=C(CC(C)(C)CC3=O)Nc3[nH]c(=S)[nH]c(=O)c32)cc1` (stereo not drawn), which Potency is on record?
**A.** The Potency was inconclusive: 20 µM [activator, partial curve, poor fit].

**Q.** With `Cc1ccc2oc(=O)c3cc(C(=O)NCCCOC(C)C)sc3c2c1` as the molecule, how does the “growth rescue (activation)” value read?
**A.** The value was inactive: -7.34%.

**Q.** For `Cn1c2ccccc2c(=O)c2ccc(C#CC3(O)CCCCC3)cc21`, which Potency is on record?
**A.** The Potency was inconclusive: 28.2 µM [activator, single point].

**Q.** With `C[C@H](CO)N1C[C@H](C)[C@@H](CN(C)C(=O)Nc2ccc(C(F)(F)F)cc2)Oc2ccc(NS(=O)(=O)c3ccc(F)cc3)cc2C1=O` as the molecule, how does the Potency read?
**A.** Its Potency is inconclusive: 25.1 µM [activator, single point].

**Q.** With `O=C(N/N=C/c1ccncc1)C1CC1(c1ccccc1)c1ccccc1` (stereo not drawn) as the molecule, how does the Potency read?
**A.** The Potency was inconclusive: 25.1 µM [activator, partial curve].

**Q.** With `CC(=O)Nc1ccc(/C=C/c2noc(-c3ccccc3O)n2)cc1` as the molecule, how does the Potency read?
**A.** The Potency was inconclusive: 11.2 µM [activator, single point].

**Q.** For `Cc1ccc(NC(=S)NNC(=O)c2cnccn2)cc1`, which “growth rescue (activation)” value is on record?
**A.** Its value is inactive: 7.57%.

**Q.** With `COc1ccccc1-c1cc(-c2ccccc2)nc(SC(C(N)=O)c2ccccc2)c1C#N` (stereo not drawn) as the molecule, how does the “growth rescue (activation)” value read?
**A.** Its value is inactive: 34.6%.

**Q.** Which Potency does the source give for `COC(=O)C1=NN(C(=O)c2ccc(C)cc2)C(O)(c2ccc(Cl)cc2)C1` (stereo not drawn) here?
**A.** Its Potency is inconclusive: 35.5 µM [activator, single point].

**Q.** Which Potency does the source give for `CCOC(=O)c1c(C#N)c(SCC(=O)Nc2ccc(OC)cc2)nc2c1CN(CC)CC2` here?
**A.** The Potency was inconclusive: 35.5 µM [activator, single point].

**Q.** Which Potency does the source give for `CCOc1ccc(N2CC(C(=O)Nc3ccc(N4CCOCC4)cc3)CC2=O)cc1` (stereo not drawn) here?
**A.** The Potency was inconclusive: 20 µM [activator, partial curve, poor fit].

**Q.** Which Potency does the source give for `O=[N+]([O-])c1cccn2cc(-c3ccc(Br)cc3)nc12` here?
**A.** Its Potency is inconclusive: 17.8 µM [activator, partial curve, poor fit].

**Q.** With `CCOC(=O)[C@]12CCCCC/C=C\1N(Cc1ccc(OC)cc1)C(=O)[C@H]2CC(=O)NCc1cccc2ccccc12` as the molecule, how does the Potency read?
**A.** Its Potency is inconclusive: 28.2 µM [activator, partial curve, poor fit].

**Q.** With `CCN(CC)S(=O)(=O)c1cc([N+](=O)[O-])ccc1NNC(=O)Nc1ccc(F)cc1` as the molecule, how does the “growth rescue (activation)” value read?
**A.** The value was inactive: -8.61%.

**Q.** Which Potency does the source give for `Cc1ccc(S(=O)(=O)CC(=O)Nc2nc3c(C)cc(C)cc3s2)cc1` here?
**A.** The Potency was inconclusive: 50.1 µM [activator, single point].

**Q.** For `Cc1noc(C)c1COc1ccc(C(=O)OCC(=O)N2CC(=O)Nc3ccccc32)cc1`, which Potency is on record?
**A.** The Potency was inconclusive: 56.2 µM [activator, partial curve, poor fit].
